# Reference: the supplement of paper PMC10037445
# Over roughly 2,900 compounds, “IRF Lucia reporter activity, fold change vs agonist alone” has its median near 0.9; the highest 2% begin near 2.8. This is one part of the list.
# Legend:
# RAW-Dual [1] = test: IRF Lucia reporter activity, fold change vs agonist alone; cytotoxicity flag (confluency mask): not cytotoxic; higher = enhanced IRF activity
# Outline: (§1)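 Reporter activity is given as fold change relative to agonist-alone wells. To measure it, 50 nL of library stock was pin-tooled onto RAW-Dual macrophages (50,000 cells/well, DMEM, 384-well plates), a PRR agonist followed 1 h later, and cells stayed at 37 °C, 5% CO2. Twenty hours on, supernatant was assayed for IRF (QuantiLuc luminescence) and NF-κB (QuantiBlue, 620 nm absorbance), and wells under 70% of agonist-control IncuCyte confluency in both mask sets were marked cytotoxic.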
# RAW-Dual [2] = test: IRF Lucia reporter activity, fold change vs agonist alone; higher = enhanced IRF activity; conditions: library stock concentration (final ~1000-fold dilution): 10 mM, agonist: MPLA (TLR4) […]
# Outline: as §1
# RAW-Dual [3] = test: IRF Lucia reporter activity, fold change vs agonist alone; cytotoxicity flag (confluency mask): cytotoxic (confluency <70% of control); higher = enhanced IRF activity
# Outline: as §1
# [4] = agonist: 3'3'-cGAMP (STING) 10 ug/mL
# [5] = cytotoxicity flag (confluency mask): not cytotoxic
structure (smiles),measurement,setting,value
COCCOc1cc(F)c2c(Nc3ccc(NC(=O)Cn4cc(C(C)C)nn4)cc3)ncnc2c1 (library stock concentration (final ~1000-fold dilution): 10 mM),IRF Lucia reporter activity,RAW-Dual [1]; [4],1.06
same,IRF Lucia reporter activity,RAW-Dual [1]; agonist: LPS (TLR4) 0.1 ug/mL,0.818
CCN1CCN(Cc2ccc(Nc3ncc(F)c(-c4cc(F)c5nc(C)n(C(C)C)c5c4)n3)nc2)CC1.CS(=O)(=O)O (library stock concentration (final ~1000-fold dilution): 10 mM),IRF Lucia reporter activity,RAW-Dual [1]; [4],0.0486
same,IRF Lucia reporter activity,RAW-Dual [1]; agonist: LPS (TLR4) 0.1 ug/mL,0.119
CCN1CCN(Cc2ccc(Nc3ncc(F)c(-c4cc(F)c5nc(C)n(C(C)C)c5c4)n3)nc2)CC1.CS(=O)(=O)O,IRF Lucia reporter activity,RAW-Dual [2]; [5],0.137
CCc1ccc(OCc2ccccc2C(=O)Nc2ccc3nc(C)cc(N)c3c2)cc1.Cl (library stock concentration (final ~1000-fold dilution): 10 mM),IRF Lucia reporter activity,RAW-Dual [3]; [4],0.0191
same,IRF Lucia reporter activity,RAW-Dual [3]; agonist: LPS (TLR4) 0.1 ug/mL,0.0171
CCc1ccc(OCc2ccccc2C(=O)Nc2ccc3nc(C)cc(N)c3c2)cc1.Cl,IRF Lucia reporter activity,RAW-Dual [2]; cytotoxicity flag (confluency mask): cytotoxic (confluency <70% of control),0.021
Cc1cc(=O)oc2c(C=O)c(O)ccc12 (library stock concentration (final ~1000-fold dilution): 10 mM),IRF Lucia reporter activity,RAW-Dual [1]; [4],0.787
same,IRF Lucia reporter activity,RAW-Dual [1]; agonist: LPS (TLR4) 0.1 ug/mL,0.266
Cc1cc(=O)oc2c(C=O)c(O)ccc12,IRF Lucia reporter activity,RAW-Dual [2]; [5],0.744
O=C(O)CSc1nnc(Br)n1-c1ccc(C2CC2)c2ccccc12 (library stock concentration (final ~1000-fold dilution): 10 mM),IRF Lucia reporter activity,RAW-Dual [1]; [4],1.05
same,IRF Lucia reporter activity,RAW-Dual [1]; agonist: LPS (TLR4) 0.1 ug/mL,1.28
O=C(O)CSc1nnc(Br)n1-c1ccc(C2CC2)c2ccccc12,IRF Lucia reporter activity,RAW-Dual [2]; [5],1
O=C(NO)c1cnc(NC2(c3ccccc3)CC2)nc1 (library stock concentration (final ~1000-fold dilution): 10 mM),IRF Lucia reporter activity,RAW-Dual [3]; [4],0.0943
same,IRF Lucia reporter activity,RAW-Dual [3]; agonist: LPS (TLR4) 0.1 ug/mL,0.24
COc1ccc(C(=C2C(=O)Nc3ccccc32)c2ccc(OC)cc2)cc1 (library stock concentration (final ~1000-fold dilution): 10 mM),IRF Lucia reporter activity,RAW-Dual [1]; [4],0.892
same,IRF Lucia reporter activity,RAW-Dual [1]; agonist: LPS (TLR4) 0.1 ug/mL,1.05
COc1ccc(C(=C2C(=O)Nc3ccccc32)c2ccc(OC)cc2)cc1,IRF Lucia reporter activity,RAW-Dual [2]; [5],1.41
CCCN(CCC)S(=O)(=O)c1ccc(C(=O)O)cc1 (library stock concentration (final ~1000-fold dilution): 10 mM),IRF Lucia reporter activity,RAW-Dual [1]; [4],1.14
same,IRF Lucia reporter activity,RAW-Dual [1]; agonist: LPS (TLR4) 0.1 ug/mL,1.35
CCCN(CCC)S(=O)(=O)c1ccc(C(=O)O)cc1,IRF Lucia reporter activity,RAW-Dual [2]; [5],1.19
Cl.NC(=O)c1cnc(NC2CCCCC2N)nc1Nc1cccc(-n2nccn2)c1 (stereo not drawn) (library stock concentration (final ~1000-fold dilution): 10 mM),IRF Lucia reporter activity,RAW-Dual [3]; [4],0.0603
same,IRF Lucia reporter activity,RAW-Dual [3]; agonist: LPS (TLR4) 0.1 ug/mL,0.0176
O=c1[nH]c(=S)[nH]c(-c2ccccc2)c1Cc1c(O)ccc2ccccc12,IRF Lucia reporter activity,RAW-Dual [2]; [5],0.949
O=c1[nH]c(=S)[nH]c(-c2ccccc2)c1Cc1c(O)ccc2ccccc12 (library stock concentration (final ~1000-fold dilution): 10 mM),IRF Lucia reporter activity,RAW-Dual [1]; [4],0.689
same,IRF Lucia reporter activity,RAW-Dual [1]; agonist: LPS (TLR4) 0.1 ug/mL,0.798
CCCC(CCC)C(N)=O (library stock concentration (final ~1000-fold dilution): 10 mM),IRF Lucia reporter activity,RAW-Dual [1]; [4],0.954
same,IRF Lucia reporter activity,RAW-Dual [1]; agonist: LPS (TLR4) 0.1 ug/mL,1.33
CCCC(CCC)C(N)=O,IRF Lucia reporter activity,RAW-Dual [2]; [5],1.04
CC(NC(=O)Cc1cc(F)cc(F)c1)C(=O)NC(C(=O)OC(C)(C)C)c1ccccc1 (stereo not drawn) (library stock concentration (final ~1000-fold dilution): 10 mM),IRF Lucia reporter activity,RAW-Dual [1]; [4],0.378
same,IRF Lucia reporter activity,RAW-Dual [1]; agonist: LPS (TLR4) 0.1 ug/mL,1.03
CC(NC(=O)Cc1cc(F)cc(F)c1)C(=O)NC(C(=O)OC(C)(C)C)c1ccccc1 (stereo not drawn),IRF Lucia reporter activity,RAW-Dual [2]; [5],1.21
O=C(O)c1cc2ccccc2c(Cc2c(O)c(C(=O)O)cc3ccccc23)c1O.OCCOCCN1CCN(C(c2ccccc2)c2ccc(Cl)cc2)CC1 (library stock concentration (final ~1000-fold dilution): 10 mM),IRF Lucia reporter activity,RAW-Dual [1]; [4],0.385
same,IRF Lucia reporter activity,RAW-Dual [1]; agonist: LPS (TLR4) 0.1 ug/mL,0.363
O=C(O)c1cc2ccccc2c(Cc2c(O)c(C(=O)O)cc3ccccc23)c1O.OCCOCCN1CCN(C(c2ccccc2)c2ccc(Cl)cc2)CC1,IRF Lucia reporter activity,RAW-Dual [2]; [5],0.55
CC1CC2C3CCC4=CC(=O)C=CC4(C)C3(F)C(O)CC2(C)C1(O)C(=O)CO (stereo not drawn) (library stock concentration (final ~1000-fold dilution): 1 mM),IRF Lucia reporter activity,RAW-Dual [1]; [4],0.589
same,IRF Lucia reporter activity,RAW-Dual [1]; agonist: LPS (TLR4) 0.1 ug/mL,0.615
CC(Nc1nc(NC(C)C(F)(F)F)nc(-c2cccc(Cl)n2)n1)C(F)(F)F (stereo not drawn) (library stock concentration (final ~1000-fold dilution): 10 mM),IRF Lucia reporter activity,RAW-Dual [1]; [4],1.35
same,IRF Lucia reporter activity,RAW-Dual [1]; agonist: LPS (TLR4) 0.1 ug/mL,1.3
COc1ccc2cc1Oc1ccc(cc1)CC1c3cc(c(OC)cc3CCN1C)Oc1c(OC)c(OC)cc3c1C(C2)N(C)CC3 (stereo not drawn),IRF Lucia reporter activity,RAW-Dual [2]; [5],1.07
COc1ccc2cc1Oc1ccc(cc1)CC1c3cc(c(OC)cc3CCN1C)Oc1c(OC)c(OC)cc3c1C(C2)N(C)CC3 (stereo not drawn) (library stock concentration (final ~1000-fold dilution): 10 mM),IRF Lucia reporter activity,RAW-Dual [1]; [4],1.01
same,IRF Lucia reporter activity,RAW-Dual [1]; agonist: LPS (TLR4) 0.1 ug/mL,0.352
